The campaign covered roughly 350,000 compounds. About 31,000 (8.9%) were called active. Inconclusive means that the source gave no clear call. Such entries were picked first, then a sample of the others. The call rests on the fitted dose curve; in most records, active means well fitted inhibition curve with a large enough effect; inconclusive means small, poorly fitted or top-dose-only effect; inactive means no such curve, though single readings can be large or run the other way. Potencies of inconclusive entries are doubtful fits and often do not repeat.
The molecules below were run against Histone-lysine N-methyltransferase EHMT2 (Homo sapiens) (UniProt Q96KQ7) (assay: qHTS Assay for Inhibitors of Histone Lysine Methyltransferase G9a). Settings: G9a H3K9 monomethylation, AlphaScreen, 2 h; activity, negative = inhibition: at 59 µM (top of the series) unless noted.
How it was run: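 Step 1: enzyme (final 20 nM) with compound, 15 min RT. Step 2: substrate peptide 500 nM and SAM 20 uM, 2 h RT. Step 3: anti-H3K9me1 antibody and AlphaScreen beads, 10 min, then plate read.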
Further: nearly all actives have a fitted effect of over 75% in size.
On the % scale 0 is the no-effect control and ±100 the full control effect; potency means the concentration at half of the fitted maximal effect; tags describe the fitted curve by direction and shape.

Sequence of UniProt Q96KQ7 (Q96KQ7 whole entry, looked up): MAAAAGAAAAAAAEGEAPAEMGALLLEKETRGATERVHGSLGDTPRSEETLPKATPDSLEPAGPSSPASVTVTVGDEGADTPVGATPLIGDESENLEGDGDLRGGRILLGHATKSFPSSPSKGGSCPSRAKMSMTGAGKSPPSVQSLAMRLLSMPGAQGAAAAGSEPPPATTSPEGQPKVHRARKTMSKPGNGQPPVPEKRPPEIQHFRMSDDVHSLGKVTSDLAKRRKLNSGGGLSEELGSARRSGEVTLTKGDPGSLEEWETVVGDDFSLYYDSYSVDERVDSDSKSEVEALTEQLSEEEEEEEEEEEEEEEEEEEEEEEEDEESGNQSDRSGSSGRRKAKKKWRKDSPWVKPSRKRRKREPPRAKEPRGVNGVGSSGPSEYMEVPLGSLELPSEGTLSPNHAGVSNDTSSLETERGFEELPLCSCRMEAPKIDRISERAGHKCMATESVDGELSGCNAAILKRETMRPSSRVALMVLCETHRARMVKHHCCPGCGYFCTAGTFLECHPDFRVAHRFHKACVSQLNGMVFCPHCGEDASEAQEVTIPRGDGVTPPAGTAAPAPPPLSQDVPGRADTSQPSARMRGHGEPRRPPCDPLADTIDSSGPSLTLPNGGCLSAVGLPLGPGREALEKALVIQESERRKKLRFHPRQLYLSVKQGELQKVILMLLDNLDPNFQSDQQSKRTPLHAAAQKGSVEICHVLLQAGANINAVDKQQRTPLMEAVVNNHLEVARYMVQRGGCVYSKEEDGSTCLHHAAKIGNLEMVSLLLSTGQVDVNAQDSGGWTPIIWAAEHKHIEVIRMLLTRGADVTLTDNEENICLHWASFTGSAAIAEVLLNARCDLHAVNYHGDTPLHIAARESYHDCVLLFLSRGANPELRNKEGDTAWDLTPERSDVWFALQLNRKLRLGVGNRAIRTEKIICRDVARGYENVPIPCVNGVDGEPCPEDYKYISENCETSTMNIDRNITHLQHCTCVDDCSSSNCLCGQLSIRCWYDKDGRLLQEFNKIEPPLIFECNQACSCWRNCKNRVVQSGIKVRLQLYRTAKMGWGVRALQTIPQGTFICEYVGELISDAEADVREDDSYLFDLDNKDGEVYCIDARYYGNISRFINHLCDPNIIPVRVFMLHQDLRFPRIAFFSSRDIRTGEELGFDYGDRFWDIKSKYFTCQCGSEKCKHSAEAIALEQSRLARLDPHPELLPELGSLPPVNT

| Structure (SMILES) | Potency | activity, negative = inhibition |
| --- | --- | --- |
| Cc1c([N+](=O)[O-])cc(C(=O)NCc2ccc(F)cc2)cc1[N+](=O)[O-] | inconclusive: 56.2 µM [inhibitor, partial curve, poor fit] | – |
| Cc1sc(NC(=O)c2ccccc2)c(C(c2ccc(Cl)cc2)N2CCN(CCO)CC2)c1C (stereo unspecified) | inconclusive: 25.1 µM [inhibitor, single point] | – |
| CCOC(=O)N1CCN(C(=O)c2ccc3c(c2)N(Cc2ccccc2F)C(=O)c2ccccc2S3(=O)=O)CC1 | inactive | – |
| Cc1cc(C)c(C(=O)CSc2nnc(-c3cccnc3)n2C)c(C)c1 | inconclusive: 31.6 µM [inhibitor, single point] | – |
| COCCNC(=O)CN(C(=O)CCC(=O)Nc1cc(C)on1)c1cccc(C)c1C | inconclusive: 89.1 µM [inhibitor, single point] | – |
| Cc1cccc(NC(=O)Cn2c(=O)n(CCCCCC(=O)NCc3ccccc3)c(=O)c3sccc32)c1 | inactive | – |
| CN(C)CCCNC(=O)c1ccc(CN(c2ccccc2)S(C)(=O)=O)cc1 | inactive | – |
| Cc1ccc(Cl)cc1N1CCN(C(=O)c2noc(C(C)C)c2[N+](=O)[O-])CC1 | inconclusive: 44.7 µM [inhibitor, partial curve, poor fit] | – |
| COc1ccc2c(=O)c3c(=O)n(Cc4ccco4)c(-c4ccccc4)nc3oc2c1 | inconclusive: 3.16 µM [inhibitor, single point] | – |
| Cc1csc(SCC(=O)Nc2cccc(S(=O)(=O)N3CCCC3)c2)n1 | inconclusive: 28.2 µM [inhibitor, single point] | – |
| CCOC(=O)c1cc2c(=O)n3ccccc3nc2n(C)c1=NC(=O)c1c(-c2c(F)cccc2Cl)noc1C | inconclusive: 7.08 µM [inhibitor, single point] | – |
| O=C(Nc1ccc(Br)c(Cl)c1)c1ccc(C(=O)Nc2ccc(Br)c(Cl)c2)cc1 | inconclusive: 31.6 µM [inhibitor, partial curve, poor fit] | – |
| COc1ccc(/C=C/c2ccc3ccccc3[n+]2C)cc1OC | active: 35.5 µM | – |
| CCOCCCn1c(=N)c(S(=O)(=O)c2ccc(C)cc2)cc2c(=O)n3cc(C)ccc3nc21 | inactive | – |
| Cc1cccc(OCCc2c(C)[nH]c(=S)[nH]c2=O)c1 | inconclusive: 56.2 µM [inhibitor, partial curve, poor fit] | – |
| COc1ccc(NC2CCCN(C(=O)CCC3=NNC(=O)CC3)C2)cc1 (stereo unspecified) | inconclusive: 44.7 µM [inhibitor, single point] | – |
| Cc1ccc(C)c(N2CCN(S(=O)(=O)c3c(C(=O)N4CCC(C)CC4)c(C)n(C)c3C)CC2)c1 | – | inactive: 9.5% [at 12.7 µM] |
| Cc1c(Nc2cc(=O)oc3ccccc23)c(=O)n(-c2ccccc2)n1C | inconclusive: 79.4 µM [inhibitor, single point] | – |
| O=C1NC(=O)/C(=C/c2ccc3nccnc3c2)S1 | inconclusive: 10 µM [inhibitor, partial curve, poor fit] | – |
| COc1ccc(Cc2nnc(NC(=O)Nc3ccc(F)cc3)s2)cc1 | inconclusive: 89.1 µM [inhibitor, single point] | – |
| CC(C)[C@@H](C(=O)NC1CCN(Cc2ccccc2)CC1)N1C(=O)N2CCc3c([nH]c4ccccc34)[C@@]2(C)C1=O | inconclusive: 50.1 µM [inhibitor, partial curve, poor fit] | – |
| CCOC(=O)c1c(C)[nH]c(C(=O)COC(=O)/C=C/c2cccc(OC)c2OC)c1C | inactive | – |

| Structure (SMILES) | Potency | activity, negative = inhibition |
| --- | --- | --- |
| CCCCCn1c(CCCNC(=O)c2ccc(Cl)cc2)nc2ccccc21 | inactive | – |
| NS(=O)(=O)c1ccc(O)c(NC(=O)c2ccc([N+](=O)[O-])o2)c1 | inconclusive: 7.94 µM [inhibitor, full curve, poor fit] | – |
| COc1ccc(CNCc2cccc(Cl)c2)cc1 | inconclusive: 35.5 µM [inhibitor, single point] | – |
| CC(=O)Nc1ccc(-c2csc(NC(C)c3ccccc3)n2)cc1 (stereo unspecified) | inconclusive: 31.6 µM [inhibitor, partial curve, poor fit] | – |
| CCOC(=O)/C=c1\s/c(=C(\C#N)C(=O)NC)n(-c2ccccc2)c1=O | inconclusive: 44.7 µM [inhibitor, partial curve, poor fit] | – |
| COc1ccccc1CNC(=O)C(=O)NCC(c1ccco1)S(=O)(=O)c1ccc(C)cc1 (stereo unspecified) | inactive | – |
| C/C(=N\Nc1ncc(Cl)cc1Cl)c1cccs1 | inactive | – |
| Cc1c(C=NCCOCc2ccccc2)cnn1C | – | inactive: -3.33% [at 12.7 µM] |
| Cc1oc(/C=N/NC(=O)CN(c2ccccc2Br)S(C)(=O)=O)cc1Br | active: 70.8 µM | – |
| COC(=O)C1=C(C)N(C(C)C)C(=O)C1(NC(=O)c1ccccc1OC)C(F)(F)F (stereo unspecified) | inactive | – |
| Cn1cc(CNC(=O)C2c3ccccc3Oc3ccccc32)cn1 | – | inconclusive: -77.1% [inhibitor] [at 0.0925 µM] |
| Cc1ccc2oc3c(c(=O)c2c1)C(c1cccs1)N(CCCN(C)C)C3=O (stereo unspecified) | active: 39.8 µM | – |
| Cc1ccc(NC(=O)CN2C(=O)NC3(CCCc4ccccc43)C2=O)cc1S(=O)(=O)N1CCOCC1 (stereo unspecified) | inconclusive: 44.7 µM [inhibitor, partial curve, poor fit] | – |
| O=C(c1ccco1)N1CCN(S(=O)(=O)c2ccc3[nH]c(=O)oc3c2)CC1 | inconclusive: 100 µM [inhibitor, single point] | – |
| Cc1ccccc1CCNC(=O)c1ccc(Cn2c(=O)c3cccn3c3cccnc32)cc1 | inactive | – |
| Cc1cc(NC(=O)C(C)Sc2nc(-c3cccs3)nc3ccccc23)no1 (stereo unspecified) | inconclusive: 79.4 µM [inhibitor, single point] | – |
| O=C(CSc1nccn1Cc1ccc(Cl)cc1)Nc1nc2ccccc2s1 | inconclusive: 39.8 µM [inhibitor, partial curve, poor fit] | – |
| COCCCNC(=O)c1cc2c(-c3cccc(OC)c3)nn(C)c2s1 | inactive | – |
| Cc1cc(N2C(=O)C(O)=C(C(=O)c3ccco3)C2c2cccc(Cl)c2)no1 (stereo unspecified) | – | inactive: -10.6% [at 0.0925 µM] |
| COc1ccc(N2CCN(C(=O)c3cc4c(=O)n(Cc5ccco5)ccc4nc3C)CC2)cc1 | inactive | – |
| COCCCn1cnc2oc3nc4ccccc4nc3c2c1=O | inconclusive: 79.4 µM [inhibitor, single point] | – |
| CCOc1ccccc1N1CC(C(=O)N2CCN(Cc3ccc(C#N)cc3)CC2)CC1=O (stereo unspecified) | – | inactive: -8.42% [at 2.33 µM] |

| Structure (SMILES) | Potency | activity, negative = inhibition |
| --- | --- | --- |
| O=C(CCc1nc(-c2ccccc2F)no1)NCCN1CCOCC1 | inconclusive: 89.1 µM [inhibitor, single point] | – |
| CCCCC[C@H]1CN(Cc2ccccc2)C(=O)[C@@H]1CC(=O)NCc1ccc(OC)cc1 | inconclusive: 79.4 µM [inhibitor, single point] | – |
| Cc1ccc(N2CC(C(=O)NC3CC3)CC2=O)cc1Cl (stereo unspecified) | inactive | – |
| O=C(CSc1nc2ccccc2s1)N1CCOCC1 | inconclusive: 31.6 µM [inhibitor, partial curve, poor fit] | – |
| O=C(NNc1c2ccccc2nc2ccccc12)c1ccccc1O | inconclusive: 8.91 µM [inhibitor, full curve, poor fit] | – |
| CCCc1cc(=O)n2[nH]c(NCc3c(F)cccc3Cl)nc2n1 | inconclusive: 22.4 µM [inhibitor, partial curve, poor fit] | – |
| Cc1ccc(N=CC=C2OC(C)(C)C(C)(C)O2)cc1 | inconclusive: 7.08 µM [inhibitor, single point] | – |
| O=C(Nc1ccc([N+](=O)[O-])cc1)c1cccc(S(=O)(=O)Nc2cccnc2)c1 | inconclusive: 70.8 µM [inhibitor, single point] | – |
| Cc1ccc(S(=O)(=O)N(C)C)cc1NC(=O)COC(=O)C1CCCC1 | inactive | – |
| CCc1ccc(-c2nc(SCC(=O)N(CCOC)c3c(N)n(Cc4ccccc4)c(=O)[nH]c3=O)n[nH]2)cc1 | inconclusive: 10 µM [inhibitor, partial curve, poor fit] | – |
| CCOc1ccc(OCC(=O)Nc2ccc(S(=O)(=O)Nc3cc(C)on3)cc2)cc1 | inactive | – |
| O=C(CCc1ccccc1)NNC(=O)COc1ccc(Cl)cc1 | inconclusive: 14.1 µM [inhibitor, partial curve] | – |
| O=C(Cc1ccccc1)Nc1ccc(-c2nnc(-c3ccco3)o2)cc1 | inactive | – |
| O=C1CSC(c2cn(-c3ccccc3)nc2-c2ccccc2)N1Cc1ccco1 (stereo unspecified) | active: 11.2 µM | – |
| Cc1csc(SCC(=O)NCc2ccc3c(c2)OCO3)n1 | inconclusive: 70.8 µM [inhibitor, partial curve, poor fit] | – |
| CCC(C)(C)NC(=O)C(c1cccn1C)N(C(=O)Cn1nnc2ccccc21)c1ccccc1OC (stereo unspecified) | inconclusive: 89.1 µM [inhibitor, partial curve, poor fit] | – |
| CCCc1nnc2n1N=C(c1ccc(C)cc1)CS2 | active: 79.4 µM | – |
| COc1ccc(N2CCN(S(=O)(=O)c3ccc4c(c3)C(C(C)C)C(=O)N4)CC2)cc1 (stereo unspecified) | inconclusive: 20 µM [inhibitor, partial curve, poor fit] | – |
| Nc1nc(CCl)nc(Nc2cccc3ccccc23)n1 | inconclusive: 14.1 µM [inhibitor, partial curve, poor fit] | – |
| COCCCNC(=O)c1cccn2c(=O)c3cc4ccccc4cc3nc12 | inconclusive: 79.4 µM [inhibitor, single point] | – |
| Cn1ccc2cc(-c3ccc4ncnc(NCc5ccc6c(c5)OCO6)c4c3)ccc21 | – | inactive: 6.88% [at 12.7 µM] |
| Cn1c(/C(C#N)=C/c2ccccc2Br)nc2ccccc21 | active: 0.398 µM | – |

— PubChem BioAssay AID504332 (National Center for Advancing Translational Sciences (NCATS), 2011)
